Measurements taken from the supplement of paper PMC3334620.
Over roughly 33,000 sequences, “E-score (-0.5 to 0.5)” has its median near -0.054; the highest 2% begin near 0.39. The list shows a part of the results.

target: Ylr278c (UniProt Q05854); test: PBM E-score (8-mer binding enrichment) (E-score (-0.5 to 0.5)); higher = stronger / more preferred TF binding; most listed sequences are background and not binding sites; details: protein concentration: 200 nM; construct: GST-DNA-binding domain
How it was run: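 GST-tagged yeast TFs (full-length or DNA-binding domain) were made by PURExpress in vitro transcription/translation and applied at about 100-200 nM to universal all-10-mer Agilent arrays. The arrays were made double-stranded by primer extension, on fresh or once-stripped slides. Bound protein was detected with fluorescent anti-GST, and scans were normalised with masliner. Each ungapped eight-base word, pooled with its reverse complement, received an E-score (modified Wilcoxon-Mann-Whitney statistic) from the Universal PBM Analysis Suite.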

Row | Sequence | PBM E-score
1 | ATATATCC | 0.257
2 | AGGTAGAT | -0.111
3 | AACAGTAA | -0.0899
4 | AATCTGCG | 0.327
5 | ACTAGAGT | -0.201
6 | CCCTTTAC | -0.0176
7 | AAAAAGTA | -0.0712
8 | ACAGCTCT | -0.304
9 | ACTGTTAA | -0.209
10 | CTCTAGAG | -0.226
11 | ACGCCCGC | 0.209
12 | AACTTTCG | -0.00201
13 | GATGACAC | -0.0218
14 | CAACGATG | -0.243
15 | AATGGATA | -0.0137
16 | AGGAAAAG | -0.0019
17 | CCCTCTGA | -0.097
18 | GTCTGTCA | -0.0519
19 | CATCGTCA | -0.119
20 | GTGGGCCA | -0.116
21 | GTTCAGCA | -0.175
22 | ATCGAGGC | -0.142
23 | ACCTGGTG | -0.018
24 | AAAGGAGT | 0.0155
25 | AATCGCGG | 0.237

Row | Sequence | PBM E-score
26 | GGTCCAAC | 0.00905
27 | GACTGAAC | 0.00033
28 | CGTCAGGA | -0.211
29 | GATGTACA | -0.00924
30 | CACCTGCC | -0.0825
31 | AGATGTAT | -0.138
32 | ACAGAATC | -0.0982
33 | TATATTAA | 0.0108
34 | ACTGCGAC | 0.0811
35 | TAACTCGA | -0.0975
36 | AACTTGTC | 0.0361
37 | CAGTAGCG | 0.0152
38 | CTAGGTAA | -0.185
39 | ACCGCTAG | -0.19
40 | AAACGAGG | -0.129
41 | ACACGTGA | 0.00211
42 | ACCGAGGT | 0.0807
43 | CGAATAAC | 0.0535
44 | GTGTTCAA | -0.0308
45 | GAGCCAGC | -0.0193
46 | CCTCACCG | 0.0908
47 | CCCCCGAC | 0.228
48 | AAAGCGGC | 0.245
49 | CTCTCTTA | -0.169
50 | CGAAGTTA | 0.0676

Row | Sequence | PBM E-score
51 | ACTTTAAA | 0.21
52 | AGACGTGG | -0.124
53 | AGTGCTCA | -0.307
54 | CAAGCTCA | -0.279
55 | AGCGGTGG | 0.132
56 | CGATTATA | 0.0463
57 | AAGTCCTC | 0.122
58 | AATCCTGT | -0.0674
59 | CTTATGAC | -0.00377
60 | GAATTCGA | 0.0907
61 | CGTTATTC | 0.037
62 | AGCATGTA | -0.239
63 | GCTGAGAA | -0.179
64 | GGTATACC | 0.056
65 | CACCGAGC | 0.152
66 | GGGGACCA | -0.0982
67 | AGTGTTCC | 0.104
68 | CCATGCAC | -0.134
69 | ACTTTTCC | 0.278
70 | ATAGAGAG | -0.283
71 | TGTTGCAA | 0.125
72 | TATGAGCA | -0.202
73 | GAGCGGCA | 0.207
74 | CAAGCCCC | 0.107
75 | CAGTGACA | -0.191

Row | Sequence | PBM E-score
76 | ATATAAAT | 0.0912
77 | AACCCAAA | -0.0513
78 | ACTAGCTG | -0.342
79 | CCCGCGAC | 0.194
80 | AGTTAGCG | 0.0104
81 | CACTTAGA | -0.107
82 | GTAACAGA | 0.0062
83 | CGTTACAA | -0.244
84 | GGACTCAA | 0.108
85 | ATAACGAG | -0.193
86 | GGAACGCA | 0.0937
87 | CTCGTAAA | -0.102
88 | CATGTTTC | 0.00321
89 | TGATTGAA | -0.109
90 | AGGCCCGA | 0.123
91 | ATTTATCA | 0.0798
92 | ACGAAAGA | -0.0168
93 | ATGACGCG | -0.0237
94 | CTCACTTA | -0.183
95 | CGCCCTAG | -0.147
96 | AACTGTCC | 0.0441
97 | CACGTGGA | -0.201
98 | TTGAACAA | -0.128
99 | AAAGTGTA | -0.201
100 | TCGCTTAA | 0.0282

Row | Sequence | PBM E-score
101 | AGACCGTA | 0.0334
102 | CCCGGCAG | 0.263
103 | CAAGGATC | -0.102
104 | ACTAGATC | -0.181
105 | ATGCGTGG | -0.281
106 | ACCTAACG | -0.124
107 | ATCCGTGA | 0.244
108 | ATCTAAGG | -0.172
109 | GACCTCGA | 0.00483
110 | ATTACCAG | -0.0426
111 | ACATCTCA | -0.201
112 | TTCTAGAA | -0.193
113 | ACAACTGG | -0.0905
114 | ACGGGTCC | 0.172
115 | ATAAGACG | -0.245
116 | ACCGCGCG | 0.282
117 | TATCCTGA | -0.121
118 | GATATCCA | -0.107
119 | ATCAAAAA | 0.0906
120 | CGTGACTC | -0.104
121 | CGTCACAC | -0.034
122 | CCCTCCAC | -0.0768
123 | CAGCAGGG | -0.158
124 | AACATTAG | -0.227
125 | TACAAAAA | -0.0414

Row | Sequence | PBM E-score
126 | GCACAGGC | -0.0619
127 | CAGACGGC | 0.0112
128 | CGGGCCGC | 0.183
129 | AGCAGGCG | 0.0223
130 | GACGTTGA | -0.0565
131 | CCCCGACA | 0.301
132 | AATTCCGT | 0.441
133 | CAATTCAC | 0.00819
134 | TGAGCACA | -0.151
135 | ACGTACCT | -0.332
136 | CCTCACGC | -0.0491
137 | ACGCATGA | -0.0973
138 | CGGTGCAA | 0.147
139 | TGCCGCAA | 0.0796
140 | CTCACCAG | -0.142
141 | ACCAAGTC | 0.0334
142 | TATGAGAA | -0.0399
143 | AGGAACAT | -0.391
144 | CTCAGCTA | -0.3
145 | AGAAACTA | -0.18
146 | GATCAATA | -0.151
147 | CGTCCACG | 0.0154
148 | CAAGTAGC | -0.305
149 | ATAATTCG | 0.00023
150 | CGGGCTAC | 0.183

Row | Sequence | PBM E-score
151 | AGCTTTTA | -0.103
152 | CTAACTGA | -0.0127
153 | ACCATGGA | -0.261
154 | GCGTGGAC | 0.0561
155 | CGTGTCTA | -0.133
156 | GCGACGCA | -0.0248
157 | TGTACTAA | -0.214
158 | ACGCGAAC | -0.00887
159 | CGAGATAC | 0.0945
160 | GAAATACA | -0.00863
161 | GTGGTCAA | -0.275
162 | AAGAAGAG | 0.00358
163 | CTCTGGGA | -0.206
164 | AGTCCACC | -0.0582
165 | AGTGGGCA | -0.0901
166 | ACTTTCGC | -0.119
167 | AACCAGGT | -0.21
168 | AGGGCCGC | 0.0521
169 | GAAGTTCA | 0.0136
170 | AACCGCGC | 0.165
171 | AGGTGGAG | -0.0939
172 | CGATGCGA | 0.0702
